According to ChEMBL document CHEMBL4888484, “Replenishing the malaria drug discovery pipeline: Screening and hit evaluation of the MMV Hit Generation Library 1 (HGL1) against asexual blood stage Plasmodium falciparum ,using a nano luciferase reporter read-out” (2022):
Hit rate of the full screen: of about 150,000 compounds, about 540 (0.36%) showed an effect of 50% or more. This is one part of the list.

These molecules were tested on Plasmodium falciparum (assay: Primary screen in NF54 nanoGlo assay, in single point, at 2uM, 72h; a lower Z score goes with more inhibition). Settings: timepoint 72 hour.
Assay type: functional, Erythrocyte
In the case of `O=C1Nc2ccc(Cl)cc2C(c2ccccc2)C1N1CCOCC1` (stereo not given), the “% Inhibition” value is reported as 35% and the Z score is reported as -3.94. In the case of `CCN(CC)S(=O)(=O)c1ccc(NC(=O)CCC(=O)c2ccc3c(c2)OCCCO3)cc1`, the “% Inhibition” value is reported as -8% and the Z score is reported as 0.76. For `CN(C(=O)c1ccc(O)cc1F)c1nccs1`, the “% Inhibition” value was 4% and the Z score was -0.39. For `Cc1cc(NC(=O)C2CCCCCC2)nc(=O)[nH]1`, the “% Inhibition” value was 2% and the Z score was -0.27. `CCC1CCCCN1C(=O)CC(=O)N1CCCCC1CC` (stereo not given) was tested, and the “% Inhibition” value was -5% and the Z score was 0.73. `O=C(Nc1cccc(Br)c1)c1ncn(C[C@H](O)c2ccc(F)cc2)n1` was tested, and the “% Inhibition” value was -6% and the Z score was 0.64. With `COc1ccc(F)c(CN2CCC[C@@]3(CCN(C(=O)c4cnccn4)C3)C2)c1` the “% Inhibition” value was 1% and the Z score was -0.11. For `Cc1cc(C)c(C(=O)N2C[C@@H]3CN(CC(C)C)CC[C@]3(CO)C2)c(C)c1`, the “% Inhibition” value was 3% and the Z score was -0.55. For `CCOC(Cn1cc(C(=O)NC[C@H](c2ccccc2)C(C)C)nn1)OCC`, the “% Inhibition” value was -9% and the Z score was 1.41. With `Cn1c(N2CCC[C@H](C(=O)Nc3ccc4c(c3)OCCO4)C2)cc(=O)n(C)c1=O` the “% Inhibition” value was -5% and the Z score was 0.98. `CC(C)(C)OC(=O)Nc1ccccc1CC(=O)NCc1ccco1` was tested, and the “% Inhibition” value was -9% and the Z score was 1.14. With `O=S1(=O)CC[C@H](Nc2nnnc3c2cnn3-c2ccccc2)C1` the “% Inhibition” value was -2% and the Z score was 0.29. In the case of `CCc1ccc(CN(C)Cc2nccn2C)o1`, the “% Inhibition” value is reported as 9% and the Z score is reported as -1.62. `CN(C[C@H]1CCCCO1)C(=O)NCc1cccc(C(F)(F)F)n1` was tested, and the “% Inhibition” value was -2% and the Z score was 0.34. In the case of `COc1cccc(CC(C)(C)NC(=O)CN(C)C)c1`, the “% Inhibition” value is reported as -6% and the Z score is reported as 1.04. With `Cc1ccc(-c2ccc(C(=O)NCCNC(=O)c3cnccn3)o2)cc1Cl` the “% Inhibition” value was -4% and the Z score was 0.59. With `C=CCn1c(C(=O)NCCN2CCCCC2)cc2c(OCc3cccc(C)c3)cccc21` the “% Inhibition” value was -11% and the Z score was 1.34. With `Cn1cc(Cl)c(C(=O)NCc2nc(C(C)(C)C)no2)n1` the “% Inhibition” value was -2% and the Z score was 0.42. In the case of `Cc1ccc(-c2cc(-c3ccc(C)cc3)c3c(n2)-c2cc(F)ccc2OC3)cc1`, the “% Inhibition” value is reported as 11% and the Z score is reported as -1.26. With `CC(C)N1Cc2cc(C(=O)NCc3ccc(Cl)cc3)sc2C1` the “% Inhibition” value was 3% and the Z score was -0.51. In the case of `Cc1cccc(NC(=O)C2C(=O)N[C@]34CCCCC3C2c2ccccc2O4)c1` (stereo not given in full), the “% Inhibition” value is reported as 2% and the Z score is reported as -0.27. For `Cc1nc(CC(=O)NC[C@@H]2COc3ccccc3C2)cs1`, the “% Inhibition” value was 4% and the Z score was -0.49. With `CNC(=O)CCCN(C)c1ccnc2cc(Br)cnc12` the “% Inhibition” value was -9% and the Z score was 1.06. `O=S(=O)(Cc1ccccc1)NCCc1cccc2[nH]ccc12` was tested, and the “% Inhibition” value was -3% and the Z score was 0.4. For `CC1CN(c2ccnc(C(=O)NCC(=O)NC3CCCCC3)c2)CC(C)O1` (stereo not given), the “% Inhibition” value was -12% and the Z score was 1.11. For `O=C(Nc1ccc2c(c1)CCC2)[C@@H]1CCCCN1C1=NS(=O)(=O)c2ccccc21`, the “% Inhibition” value was 3% and the Z score was -0.57. For `O=C(COc1ccccc1)NCc1cccnc1-n1ccnc1`, the “% Inhibition” value was 1% and the Z score was -0.19. With `CC(NCC1CCC(C(=O)N(C)C)O1)C(C)(C)C(F)F` (stereo not given) the “% Inhibition” value was -1% and the Z score was 0.12. With `CCCC(=O)Nc1cccc(Br)c1` the “% Inhibition” value was -6% and the Z score was 1.09. For `CC(C)CN1CC(=O)N(C2CCN(c3ccc(N(C)C)cc3)CC2)C1=O`, the “% Inhibition” value was 31% and the Z score was -3.47. `Nc1cc(Br)cc(Br)c1N` was tested, and the “% Inhibition” value was -10% and the Z score was 1.48. In the case of `Cn1nc2c(c1C(=O)NCCc1csc(N)n1)CCCC2`, the “% Inhibition” value is reported as -6% and the Z score is reported as 1.21. `CC(C)Oc1cccc(-c2ccc(-c3nnco3)cc2)c1` was tested, and the “% Inhibition” value was -8% and the Z score was 1.04. For `CCN(CC)Cc1cnc2c(C(=O)N(C)Cc3nc(C)c[nH]3)cnn2c1`, the “% Inhibition” value was -10% and the Z score was 0.97. For `CC[C@H](NC(=O)CCCN1CCOCC1)c1nccs1`, the “% Inhibition” value was -18% and the Z score was 1.82. For `COc1cccc(N2CCN(C(=O)c3ccc(C)nc3C3CCN(Cc4ccccc4OC)CC3)CC2)c1`, the “% Inhibition” value was -4% and the Z score was 0.85. `CCN(CC)C[C@H](C)NC(=O)Nc1cc(C)on1` was tested, and the “% Inhibition” value was -16% and the Z score was 1.59. With `CCOc1ccc(C2=NC3(CCN(C(C)C)CC3)N[C@H](c3cccc(OC)c3O)C2)cc1` the “% Inhibition” value was -11% and the Z score was 1.26. With `Cc1cc(C(=O)N[C@@H](C)c2ccc(OC(F)(F)F)cc2)co1` the “% Inhibition” value was -13% and the Z score was 1.27. `O=S(=O)(c1cccc(F)c1F)N1CCN(Cc2nccn2C(F)F)CC1` was tested, and the “% Inhibition” value was -4% and the Z score was 0.57. In the case of `CON(C)C(=O)c1coc(NC(=O)c2cnccn2)n1`, the “% Inhibition” value is reported as -8% and the Z score is reported as 1.06. With `FC(F)(F)c1cncc(CN2CC[C@H](Nc3ncccn3)C2)c1` the “% Inhibition” value was -1% and the Z score was 0.19. In the case of `CCN1[C@H](C)CN(C(=O)OCCF)C[C@@H]1C`, the “% Inhibition” value is reported as -7% and the Z score is reported as 0.89. With `O=C(c1cccc2cc[nH]c12)N1C[C@@H]2[C@H](C1)[C@H]1CC[C@@H]2O1` the “% Inhibition” value was 18% and the Z score was -1.92. For `C#CCN1CCN(C(=O)NCc2cnc(CC(C)C)s2)CC1`, the “% Inhibition” value was 5% and the Z score was -0.95. For `CNC(=N[C@@H](CC1CCOCC1)c1ccccc1)NCc1ccco1`, the “% Inhibition” value was 1% and the Z score was -0.14. With `C[C@@]1(C(=O)NCc2ccccc2)Cn2cnc(C(=O)NCCc3ccco3)c2C(=O)N1C1CC1` the “% Inhibition” value was -4% and the Z score was 0.81. In the case of `COC[C@H]1CCCN(S(=O)(=O)NCCc2ccncc2)C1`, the “% Inhibition” value is reported as -17% and the Z score is reported as 1.6. In the case of `CC(=O)N1CCc2ccc(OCC(=O)NCc3ccccc3)cc2[C@@H]1c1ccccc1`, the “% Inhibition” value is reported as -8% and the Z score is reported as 0.82. With `CC[C@H](C)[C@@H](CN(C)C)NC(=O)CCc1ccncc1` the “% Inhibition” value was 20% and the Z score was -2.58. In the case of `CCCCNC(=O)N1CCN(C2CCOCC2OC)CC1` (stereo not given), the “% Inhibition” value is reported as -14% and the Z score is reported as 1.78. In the case of `Nc1cc(C(F)(F)F)ccc1OCC(F)(F)F`, the “% Inhibition” value is reported as -7% and the Z score is reported as 0.85. In the case of `C[C@H]1CCN(Cc2cccc(-c3cccnc3)c2)CCS1(=O)=O`, the “% Inhibition” value is reported as 3% and the Z score is reported as -0.48. With `CCOc1ccc(Cc2nc(CN3C(=O)COc4ccccc43)no2)cc1OCC` the “% Inhibition” value was 3% and the Z score was -0.35. With `Cn1nc(C(F)(F)F)cc1[C@@H]1CCCCCN1C(=O)c1ccc(F)cc1` the “% Inhibition” value was -2% and the Z score was 0.3.
